Test results reported in the supplement of paper PMC7125110.
± gives the standard error. Variants at the floor of the assay are shown more often than the library holds them.

B1: glmS ribozyme (parent)
chain: AUAAAAGCGCCAGAACUACAGAAAUGUAGUUGACGAGGAGGAGGUUUAUCGAAUUUUCGGCGGAUGCCUCCAAA

How the values were obtained:
Details in all cases: with glucosamine-6-phosphate
glucosamine-6-phosphate [1] = variants of: B1; test: self-cleavage kobs at 640 uM GlcN6P; higher = faster cleavage; RNA array
Summary of the method: (§1)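 Tracking of barcoded ribozyme variants used a hybridised Cy3 probe at 37 °C, after in situ transcription by E. coli RNA polymerase on sequenced MiSeq chips. The flowed solution held 40 μM to 10 mM glucosamine-6-phosphate in HEPES/KCl/Mg(OAc)2 buffer, and imaging ran over ~14 h. kobs was taken from exponential decay fits of normalised per-tile medians, and kcat and KM from weighted Michaelis–Menten fits.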

glucosamine-6-phosphate [2] = variants of: B1; test: self-cleavage kobs at 2500 uM GlcN6P; higher = faster cleavage; RNA array
Summary of the method: as §1

glucosamine-6-phosphate [3] = variants of: B1; test: self-cleavage kobs at 160 uM GlcN6P; higher = faster cleavage; RNA array
Summary of the method: as §1

glucosamine-6-phosphate [4] = variants of: B1; test: self-cleavage kobs at 10000 uM GlcN6P; higher = faster cleavage; RNA array
Summary of the method: as §1

Variant | self-cleavage kobs at 640 uM GlcN6P (glucosamine-6-phosphate [1]) | self-cleavage kobs at 2500 uM GlcN6P (glucosamine-6-phosphate [2]) | self-cleavage kobs at 160 uM GlcN6P (glucosamine-6-phosphate [3]) | self-cleavage kobs at 10000 uM GlcN6P (glucosamine-6-phosphate [4])
AUAAAAGCGCCAGGACUACAGAAAUGUAGUUGGCGAAGAGGAGGUUUAUGGAAUUUUCGGCGGAUGCCUGCAAA [A14G A33G G37A C50G C70G] | 6.3e-05 ± 2.1e-05 s⁻¹ | 4.9e-05 ± 1.5e-05 s⁻¹ | – | –
AUAAAAGCGCCAGUACUACAGAAAUGUAGUUGACGAGGAGGAGGUUUUUCAGAUUUUCGGCGGAUGCCUCCAAA [A14U A48U G51A A52G] | < 1e-05 s⁻¹ | < 1e-05 s⁻¹ | – | –
AUAAAAGCGCCAGGACUACAGAAAUGUAGUUGACGUGGAGGAGGUUUAUCGAAUUUUCGGCGGAUGCAUCCAAA [A14G A36U C68A] | < 1e-05 s⁻¹ | – | – | –
AUAAAAGCGCCAGGACUACAGAAAUGUAGUUGAAGAGGAGGAGGUUUAUCGAAUUUUCGGCGGAUGCCUCCAAA [A14G C34A] | < 1e-05 s⁻¹ | – | < 1e-05 s⁻¹ | –
AUAAAAGCGCCAGGACUACAGAAAUGUAGUUGAUGAGGAGGAGGUUUAUCGAAUUUUCGGCGGAUGCCUCCAAA [A14G C34U] | < 1e-05 s⁻¹ | – | – | < 1e-05 s⁻¹
AUAAAAGCGCCAGGACUACAGAAAUGUAUUUGACGAGGAGGAGGUUGAUCGAAUUUUCGGCGGAUGCCUGCAAA [A14G G29U U47G C70G] | 0.000119 ± 3.1e-05 s⁻¹ | 6.72e-05 ± 1.5e-05 s⁻¹ | – | 0.000118 ± 2.8e-05 s⁻¹
AUAAAAGCGCCAGGACUACAGAAAUGUAGUUGACGAGCAGGAGAUUUAUCGAAUUUUCGGCGGAUGCCUCCAAA [A14G G38C G44A] | < 1e-05 s⁻¹ | < 1e-05 s⁻¹ | – | < 1e-05 s⁻¹
AUAAAAGCGCCAGUACUACAGAAAUGUAGUUGACGAGGAGGAGGUUUAUCGGAUUUUCGGCGGAUGCCUCCAAA [A14U A52G] | 7.16e-05 ± 1e-05 s⁻¹ | 0.000166 ± 1.6e-05 s⁻¹ | 5.44e-05 ± 1.7e-05 s⁻¹ | 0.000325 ± 4.4e-05 s⁻¹
AUAAAAGCGCCAGGACUACAGAAAUGUAGUUGACGUGGAGGAGGUUUAUCAAAUUUUCGGCGGAUGCCUCCAAA [A14G A36U G51A] | < 1e-05 s⁻¹ | – | – | –
AUAAAAGCGCCAGUACUACAGAAAUGUAGUUGACGAGGAGGCGGUUUAUCGAAUUUUCGGCGGCUGCCUCCAAA [A14U A42C A64C] | < 1e-05 s⁻¹ | < 1e-05 s⁻¹ | – | < 1e-05 s⁻¹
AUAAAAGCGCCAGGACUACAGAAAUGUAGUUGACGAGUAGGAGGUUUAUCGCAUGUUCGGCGGAUGCCUCCAAA [A14G G38U A52C U55G] | < 1e-05 s⁻¹ | – | – | –
AUAAAAGCGCCAGUACUACAGAAAUGUAGUUGACGAGGAGGAGGUUUAUCGAAUUUUCGGAGGAUACCUCCAAA [A14U C61A G66A] | < 1e-05 s⁻¹ | – | – | –
AUAAAAGCGCCAGUACUACAGAAAUGUAGUUGACGAGGAGGCGGUUUAUCGAAUUUUCGGCGGAUGCCUCCAAA [A14U A42C] | < 1e-05 s⁻¹ | < 1e-05 s⁻¹ | < 1e-05 s⁻¹ | < 1e-05 s⁻¹
AUAAAAGCGCCAGGACUACAGAAAUGUAGUUGACGAGGGGGAGGUUUAUCGAAUUUUCGGCGGAUGCCACCAAA [A14G A39G U69A] | 0.000936 ± 0.00031 s⁻¹ | 0.000786 ± 0.00024 s⁻¹ | 0.000285 ± 7.7e-05 s⁻¹ | –
AUAAAAGCGCCAGGAUUACAGAAAUGUAGUUGACGAGGAGGAGGAUUAUCUAAUUUUCGGGGGAUGCCUCCAAA [A14G C16U U45A G51U C61G] | < 1e-05 s⁻¹ | – | – | –
AUAAAAGCGCCAGUACUACAGAAAUGUAGUUGCCGAGGAGGAGGUUUAUCGAAUUUUCGGCGGAUGCCUCGAAA [A14U A33C C71G] | < 1e-05 s⁻¹ | – | – | –
AUAAAAGCGCCAGUACUACAGAAAUGUAGUUGACGAGGAGGACGUUUAUCGAAUUUUCGGCGGAUGCCUCCAAA [A14U G43C] | < 1e-05 s⁻¹ | < 1e-05 s⁻¹ | – | < 1e-05 s⁻¹
